In all, about 110,000 compounds were measured (“z-score”: median about -0.1, highest 2% from about 2 on). This is one part of the list. Calls of active or inactive are those of the source.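 The calls were made as follows: active = z-score in the third read window above 3 or below -3; inactive = the rest.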

In this test the target is Metabotropic glutamate receptor 8 (Rattus norvegicus) (UniProt P70579). In words: rat mGluR8 modulators via GIRK flux, primary screen, cell-based, thallium flux, HTS (AID 488969). To be noted: HEK293 rat mGluR8, GIRK (G protein-gated inwardly rectifying potassium channel) thallium flux, FluoZin2; at 10 µM; stronger effect = higher value; submaximal glutamate (EC20) added with thallium.
UniProt P70579, sequence (P70579 whole entry, looked up): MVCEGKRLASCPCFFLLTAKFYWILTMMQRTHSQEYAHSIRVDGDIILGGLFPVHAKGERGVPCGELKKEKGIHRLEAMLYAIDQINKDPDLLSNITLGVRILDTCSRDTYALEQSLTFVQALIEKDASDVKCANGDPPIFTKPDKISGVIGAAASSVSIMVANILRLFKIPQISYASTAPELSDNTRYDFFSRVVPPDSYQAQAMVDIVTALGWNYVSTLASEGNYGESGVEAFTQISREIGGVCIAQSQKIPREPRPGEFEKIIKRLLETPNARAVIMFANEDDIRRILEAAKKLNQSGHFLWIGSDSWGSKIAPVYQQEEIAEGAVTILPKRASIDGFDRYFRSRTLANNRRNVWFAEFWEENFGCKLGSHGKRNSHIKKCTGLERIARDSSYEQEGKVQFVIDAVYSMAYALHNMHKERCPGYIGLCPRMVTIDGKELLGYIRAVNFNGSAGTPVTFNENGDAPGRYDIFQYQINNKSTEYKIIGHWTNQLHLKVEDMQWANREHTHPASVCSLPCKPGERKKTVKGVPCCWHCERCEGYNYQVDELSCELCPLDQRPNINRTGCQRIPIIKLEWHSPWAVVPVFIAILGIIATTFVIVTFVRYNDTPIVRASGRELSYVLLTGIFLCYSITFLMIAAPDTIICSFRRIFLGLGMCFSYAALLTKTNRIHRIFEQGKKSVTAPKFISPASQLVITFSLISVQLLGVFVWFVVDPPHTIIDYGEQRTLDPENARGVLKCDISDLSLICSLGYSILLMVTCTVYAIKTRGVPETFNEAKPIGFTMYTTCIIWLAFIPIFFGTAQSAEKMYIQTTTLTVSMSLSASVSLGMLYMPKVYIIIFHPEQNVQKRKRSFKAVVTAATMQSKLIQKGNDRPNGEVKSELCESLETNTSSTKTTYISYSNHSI
As to `CCn1c(=O)cc(SCC(=O)Nc2ccc(OC)c(OC)c2)c2ccccc21`, the z-score was -0.229.
Turning to `CCN1C=CC2=C(C#N)C(N)C(C#N)(C#N)C(c3ccccc3C(F)(F)F)C2C1` (stereo not given), the z-score was -2.55.
With `CC(Oc1ccc(Cl)cc1Cl)C(=O)NN=C1CCN(C)CC1` (stereo not given) the figure was -0.0448; with `Cc1ccc(C(=O)NC2CC3CCC(C2)N3Cc2ccco2)cc1` (stereo not given), 0.554; with `CCC(C)(C)n1nnnc1C(c1ccc(C)cc1)N1CCN(C(=O)c2ccco2)CC1` (stereo not given), 0.975.
With `Cn1nc(C(F)(F)F)c(C#N)c1N1CCN(c2ccc(F)cc2)CC1` the figure was -2.54.
With `CCSc1nnc(-c2cccs2)o1` the figure was 0.198; with `CC(C)C1Cc2c(sc3[nH]c(=S)n(Cc4ccccc4)c(=O)c23)CO1` (stereo not given), active: 5.29.
With `CCCC1CCC(=C(C#N)C(N)=O)CC1` (stereo not given), the z-score stood at 0.283.
In the case of `Cc1ccc(C(=O)NNC(=O)C2CCN(c3nc(C)cc(C)n3)CC2)cc1`, the z-score was -0.127.
The compound `O=c1cc(CO)oc(CN2CCN(c3ccccc3)CC2)c1O` registered a z-score of -0.094.
With `CCOC(=O)c1sc2ncn(/N=C/c3cccnc3)c(=O)c2c1C` the figure was -0.233; with `O=C(NCc1nnc2c3ccccc3c(-c3ccccc3)nn12)c1ccccc1Cl`, -0.276.
For `O=C1CC(N(O)C2CC(=O)N(Cc3ccccc3)C2=O)C(=O)N1Cc1ccccc1` (stereo not given), the z-score was -0.144.
For `C/C(=N\NC(=O)c1ccc(CSc2nncn2C)cc1)c1ccc(Cl)cc1`, the z-score was -0.0615.
In turn, `COc1ccc(C2N(c3cc(C)on3)C(=O)C3CCCN32)cc1OC` (stereo not given) displayed a z-score of -0.238.
Then `Cc1ccc(SCCNC(=O)/C=C/c2cccc([N+](=O)[O-])c2)cc1`, with -0.493; and `CCCS(=O)(=O)N1CCCC(C(=O)NCc2ccc3c(c2)OCO3)C1` (stereo not given), with -0.106; and `CC1Cc2ccccc2N1C(=O)CCn1c(=O)oc2ccccc21` (stereo not given), with -0.561.
With `N#C/C(=N/Nc1ccccc1F)C(=N)N1CCOCC1` the figure was -0.131; with `O=C(CN1CCN(C/C=C/c2ccccc2)CC1)Nc1cc([N+](=O)[O-])ccc1Cl`, -0.0486; with `C(=C\c1ccccc1)/C=N/N1CCN(c2ccccn2)CC1`, -0.106.
`CCc1nnc(NC(=O)CSc2nnc(-c3ccc(S(=O)(=O)N4CCCC4)cc3)n2CC)s1` displayed a z-score of -0.659.
In the case of `CCN(CC)C(=O)c1oc2ccc(S(=O)(=O)N3CCCCCC3)cc2c1C`, the z-score was -0.0118.
In turn, `Cc1cc(N/N=C/c2ccccc2Br)nc2ccccc12` displayed a z-score of -0.682.
On to `COc1ccccc1N(CC(=O)NCC1CCCO1)C(=O)CCC(=O)Nc1nccs1` (stereo not given), for which the z-score is -0.532.
As to `CNC(=O)/C(=C/c1ccc2c(c1)OCO2)NC(=O)c1ccc(Br)cc1`, the z-score stood at 0.116.
With `CCC(C)(C)n1nnnc1CN1CCN(C(c2ccccc2)c2ccccc2)CC1` the figure was 0.0727; with `CNC(=S)N=Nc1c(O)[nH]c2ccc(C(C)C)cc12`, active: 5.56; with `Cn1c(Cc2c[nH]c3ccccc23)n[nH]c1=S`, -0.255.
